Experimental data taken from PMC3210812.
No constants are given. Whether binding was seen depends on the method and setting. Binding seen in cells or lysates may run through a third protein. Some results given as binding are weak or reduced against the parent protein; the word gives no strength. Sequences can lack the tags named with a protein.

Chains of the proteins cited; added tags and fusions are not shown.
UniProt P22459: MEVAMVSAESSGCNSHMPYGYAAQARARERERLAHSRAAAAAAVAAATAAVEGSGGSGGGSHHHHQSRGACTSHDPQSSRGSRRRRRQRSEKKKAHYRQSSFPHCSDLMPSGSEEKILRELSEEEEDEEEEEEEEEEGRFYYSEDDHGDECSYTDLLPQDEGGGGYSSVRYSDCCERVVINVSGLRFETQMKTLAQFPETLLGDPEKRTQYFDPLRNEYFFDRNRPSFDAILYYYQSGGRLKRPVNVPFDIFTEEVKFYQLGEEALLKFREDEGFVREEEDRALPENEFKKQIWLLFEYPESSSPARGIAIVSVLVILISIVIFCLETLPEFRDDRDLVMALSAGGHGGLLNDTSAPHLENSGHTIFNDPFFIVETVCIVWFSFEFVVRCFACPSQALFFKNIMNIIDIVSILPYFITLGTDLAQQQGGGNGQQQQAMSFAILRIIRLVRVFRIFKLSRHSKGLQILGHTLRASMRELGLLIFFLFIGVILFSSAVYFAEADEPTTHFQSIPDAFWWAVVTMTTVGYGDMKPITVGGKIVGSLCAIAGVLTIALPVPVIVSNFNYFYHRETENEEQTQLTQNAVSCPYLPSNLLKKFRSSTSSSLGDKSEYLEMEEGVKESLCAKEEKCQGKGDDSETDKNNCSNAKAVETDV
UniProt Q9NQU5: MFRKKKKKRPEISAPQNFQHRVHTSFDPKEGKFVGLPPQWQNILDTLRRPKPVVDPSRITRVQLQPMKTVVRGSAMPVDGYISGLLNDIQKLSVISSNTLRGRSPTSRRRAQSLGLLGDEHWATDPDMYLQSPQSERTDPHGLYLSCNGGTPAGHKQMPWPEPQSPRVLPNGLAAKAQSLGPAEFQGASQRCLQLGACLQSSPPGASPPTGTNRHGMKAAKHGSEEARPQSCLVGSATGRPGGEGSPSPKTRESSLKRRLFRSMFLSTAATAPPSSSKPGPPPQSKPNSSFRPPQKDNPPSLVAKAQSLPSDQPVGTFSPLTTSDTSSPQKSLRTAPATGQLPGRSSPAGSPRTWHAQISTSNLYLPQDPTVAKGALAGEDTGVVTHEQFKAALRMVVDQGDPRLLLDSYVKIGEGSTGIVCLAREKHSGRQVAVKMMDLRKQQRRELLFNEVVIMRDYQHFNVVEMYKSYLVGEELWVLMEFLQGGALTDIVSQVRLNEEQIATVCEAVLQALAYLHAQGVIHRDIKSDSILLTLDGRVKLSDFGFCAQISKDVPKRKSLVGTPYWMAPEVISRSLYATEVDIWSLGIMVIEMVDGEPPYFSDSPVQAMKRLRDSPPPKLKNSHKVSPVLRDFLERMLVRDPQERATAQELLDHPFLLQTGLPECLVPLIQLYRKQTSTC
UniProt P29597: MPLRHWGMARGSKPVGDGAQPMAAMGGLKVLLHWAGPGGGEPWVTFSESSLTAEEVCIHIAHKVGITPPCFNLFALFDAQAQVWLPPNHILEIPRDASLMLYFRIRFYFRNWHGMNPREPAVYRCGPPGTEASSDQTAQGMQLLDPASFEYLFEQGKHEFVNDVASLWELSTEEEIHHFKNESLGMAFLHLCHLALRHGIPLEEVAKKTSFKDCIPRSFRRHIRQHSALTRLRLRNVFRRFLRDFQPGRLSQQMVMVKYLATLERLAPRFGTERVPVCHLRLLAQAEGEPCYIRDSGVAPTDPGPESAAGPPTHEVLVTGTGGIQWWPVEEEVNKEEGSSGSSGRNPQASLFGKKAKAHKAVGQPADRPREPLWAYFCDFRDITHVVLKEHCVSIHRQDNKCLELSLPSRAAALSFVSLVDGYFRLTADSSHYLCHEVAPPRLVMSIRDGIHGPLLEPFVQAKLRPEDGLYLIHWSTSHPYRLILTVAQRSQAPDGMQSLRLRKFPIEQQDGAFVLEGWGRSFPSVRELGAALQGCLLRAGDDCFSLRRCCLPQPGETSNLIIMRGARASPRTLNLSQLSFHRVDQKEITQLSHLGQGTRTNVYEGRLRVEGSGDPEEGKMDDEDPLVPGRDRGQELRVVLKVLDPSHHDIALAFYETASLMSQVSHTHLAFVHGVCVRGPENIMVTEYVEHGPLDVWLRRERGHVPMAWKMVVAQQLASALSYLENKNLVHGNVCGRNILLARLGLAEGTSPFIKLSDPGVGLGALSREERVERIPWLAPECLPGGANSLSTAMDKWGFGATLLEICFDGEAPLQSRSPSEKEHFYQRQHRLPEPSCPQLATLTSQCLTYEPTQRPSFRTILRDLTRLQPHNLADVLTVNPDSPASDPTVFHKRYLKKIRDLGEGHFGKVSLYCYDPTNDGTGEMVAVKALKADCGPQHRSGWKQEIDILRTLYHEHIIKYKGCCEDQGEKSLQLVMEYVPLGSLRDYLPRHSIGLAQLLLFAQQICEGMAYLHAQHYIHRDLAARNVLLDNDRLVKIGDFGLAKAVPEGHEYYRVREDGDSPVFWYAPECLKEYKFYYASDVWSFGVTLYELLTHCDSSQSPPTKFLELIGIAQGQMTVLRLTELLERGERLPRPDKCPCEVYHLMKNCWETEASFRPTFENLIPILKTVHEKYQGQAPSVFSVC

T1: GST-hLNX1 PDZ1 (aa 222–380) (human) (UniProt Q8TBB1)
T1 sequence: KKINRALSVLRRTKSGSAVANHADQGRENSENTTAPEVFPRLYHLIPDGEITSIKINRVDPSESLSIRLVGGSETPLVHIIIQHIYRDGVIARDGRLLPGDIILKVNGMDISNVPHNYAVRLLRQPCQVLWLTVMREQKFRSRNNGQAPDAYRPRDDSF

T2: GST-hLNX1 PDZ3 (aa 498–597) (human) (UniProt Q8TBB1)
T2 sequence (chain, Alexa Fluor 647 label (array experiments)): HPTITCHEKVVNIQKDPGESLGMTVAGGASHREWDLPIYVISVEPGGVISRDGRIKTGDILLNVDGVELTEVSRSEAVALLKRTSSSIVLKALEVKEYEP

T3: GST-hLNX1 PDZ2 (aa 373–466) (human) (UniProt Q8TBB1)
T3 sequence (chain, Alexa Fluor 647 label (array experiments)): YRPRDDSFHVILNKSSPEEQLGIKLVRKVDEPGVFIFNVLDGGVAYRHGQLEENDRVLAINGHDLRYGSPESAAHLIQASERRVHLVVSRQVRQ

T4: GST-hLNX1 PDZ4Δ3C (aa 630–725) (human) (UniProt Q8TBB1)
T4 sequence (chain, Alexa Fluor 647 label (array experiments)): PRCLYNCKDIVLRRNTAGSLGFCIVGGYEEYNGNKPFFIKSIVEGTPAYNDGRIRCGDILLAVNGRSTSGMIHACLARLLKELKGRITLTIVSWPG


Assays:
Experiment in all cases: pull-down; 3 ug of purified GST fusion protein on glutathione sepharose beads with 50-100 uL of transfected 293T cell lysate in PLC lysis buffer, 90 min at 4°C; anti-myc blot (Figure 5); only the target purified
[1] = biological target: T1, GST-hLNX1 PDZ1 (aa 222–380) (human)
[2] = biological target: T2, GST-hLNX1 PDZ3 (aa 498–597) (human)
[3] = biological target: T3, GST-hLNX1 PDZ2 (aa 373–466) (human)
[4] = biological target: T4, GST-hLNX1 PDZ4Δ3C (aa 630–725) (human)

| binding [1] | binding [2] | binding [3] | binding [4] | Molecule |
| --- | --- | --- | --- | --- |
| – | no binding | binds | binds | Myc-tagged PKC-alpha1 (from UniProt P17252 1-672) |
| binds | binds | – | – | Myc-tagged PLEKHG5 (protein, UniProt O94827 1-1006) MHYDGHVRFDLPPQGSVLARNVSTRSCPPRTSPAVDLEEEEEESSVDGKGDRKSTGLKLSKKKARRRHTDDPSKECFTLKFDLNVDIETEIVPAMKKKSLGEVLLPVFERKGIALGKVDIYLDQSNTPLSLTFEAYRFGGHYLRVKAPAKPGDEGKVEQGMKDSKSLSLPILRPAGTGPPALERVDAQSRRESLDILAPGRRRKNMSEFLGEASIPGQEPPTPSSCSLPSGSSGSTNTGDSWKNRAASRFSGFFSSGPSTSAFGREVDKMEQLEGKLHTYSLFGLPRLPRGLRFDHDSWEEEYDEDEDEDNACLRLEDSWRELIDGHEKLTRRQCHQQEAVWELLHTEASYIRKLRVIINLFLCCLLNLQESGLLCEVEAERLFSNIPEIAQLHRRLWASVMAPVLEKARRTRALLQPGDFLKGFKMFGSLFKPYIRYCMEEEGCMEYMRGLLRDNDLFRAYITWAEKHPQCQRLKLSDMLAKPHQRLTKYPLLLKSVLRKTEEPRAKEAVVAMIGSVERFIHHVNACMRQRQERQRLAAVVSRIDAYEVVESSSDEVDKLLKEFLHLDLTAPIPGASPEETRQLLLEGSLRMKEGKDSKMDVYCFLFTDLLLVTKAVKKAERTRVIRPPLLVDKIVCRELRDPGSFLLIYLNEFHSAVGAYTFQASGQALCRGWVDTIYNAQNQLQQLRAQEPPGSQQPLQSLEEEEDEQEEEEEEEEEEEEGEDSGTSAASSPTIMRKSSGSPDSQHCASDGSTETLAMVVVEPGDTLSSPEFDSGPFSSQSDETSLSTTASSATPTSELLPLGPVDGRSCSMDSAYGTLSPTSLQDFVAPGPMAELVPRAPESPRVPSPPPSPRLRRRTPVQLLSCPPHLLKSKSEASLLQLLAGAGTHGTPSAPSRSLSELCLAVPAPGIRTQGSPQEAGPSWDCRGAPSPGSGPGLVGCLAGEPAGSHRKRCGDLPSGASPRVQPEPPPGVSAQHRKLTLAQLYRIRTTLLLNSTLTASEV |

Second part, the molecule before the results:

| Molecule | binding [1] | binding [2] | binding [3] | binding [4] |
| --- | --- | --- | --- | --- |
| Myc-tagged KCNA4 (from UniProt P22459 1-653) | binds | no binding | – | – |
| Myc-tagged PAK6 (from UniProt Q9NQU5 1-681) | – | no binding | binds | binds |
| Myc-tagged TYK2 (from UniProt P29597 1-1187) | – | no binding | binds | – |
